# According to the BET-seq Pho4 binding data (Le et al. 2018):
# This is one part of the list. The energies were worked out here from pooled read counts, against the library average; single values are noisy.
# Biological target: T1, Pho4 (S. cerevisiae) (UniProt P07270)
# T1 sequence: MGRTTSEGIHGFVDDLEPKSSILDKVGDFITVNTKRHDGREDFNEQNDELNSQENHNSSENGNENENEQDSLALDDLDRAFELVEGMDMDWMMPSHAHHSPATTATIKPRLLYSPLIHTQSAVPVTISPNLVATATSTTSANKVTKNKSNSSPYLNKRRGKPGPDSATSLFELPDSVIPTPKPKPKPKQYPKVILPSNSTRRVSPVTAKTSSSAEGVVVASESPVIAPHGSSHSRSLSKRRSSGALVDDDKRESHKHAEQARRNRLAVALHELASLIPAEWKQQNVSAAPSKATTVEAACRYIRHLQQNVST
# Test: relative binding free energy (BET-seq); higher = weaker binding
# Details: reference: library average
row,Sequence,relative binding free energy
1,TATAACACGTGGGTTT,-0.15 kcal/mol
2,TTCTACACGTGTTATG,0.03 kcal/mol
3,GCTTTCACGTGAGGCG,0.34 kcal/mol
4,TGAAACACGTGCTTGT,0.14 kcal/mol
5,GTTTCCACGTGTATTT,0.1 kcal/mol
6,GGAGTCACGTGGGTAG,0.07 kcal/mol
7,AGTGTCACGTGCTGAT,-0.06 kcal/mol
8,TTTTTCACGTGAATAT,0.47 kcal/mol
9,GGGTTCACGTGTAATG,0.4 kcal/mol
10,ATATCCACGTGTGTTT,0 kcal/mol
11,GAATTCACGTGGTGAG,0.28 kcal/mol
12,ATTAGCACGTGAAAGG,0.24 kcal/mol
13,CCCGTCACGTGGGGTG,-0.08 kcal/mol
14,TTTGGCACGTGACGGA,-0.18 kcal/mol
15,ATATTCACGTGCTGGA,0.28 kcal/mol
16,TAGGCCACGTGGAGGT,-0.1 kcal/mol
17,AGCAGCACGTGGAAGG,0.09 kcal/mol
18,GGTTGCACGTGGAAAT,0.14 kcal/mol
19,GATGACACGTGGGCTG,-0.09 kcal/mol
20,ATCGGCACGTGGATGT,0 kcal/mol
21,GTCGTCACGTGATATG,0.24 kcal/mol

row,Sequence,relative binding free energy
1,TCGCGCACGTGTTTGT,-0.14 kcal/mol
2,CTATGCACGTGATTGG,0.15 kcal/mol
3,ATGTGCACGTGTCGAG,0.05 kcal/mol
4,GGGCTCACGTGAAGTG,0.34 kcal/mol
5,GTCGGCACGTGGTGCG,-0.17 kcal/mol
6,ATCTTCACGTGGATTT,0.32 kcal/mol
7,TTGTGCACGTGCAGCG,-0.11 kcal/mol
8,ATATACACGTGGGGAA,-0.1 kcal/mol
9,CGGTTCACGTGTTAAG,0.24 kcal/mol
10,TGTTCCACGTGGGGAC,0.03 kcal/mol
11,GGTTTCACGTGCAGGA,0.36 kcal/mol
12,GGGACCACGTGTTTGT,-0.12 kcal/mol
13,TCATGCACGTGTTTGG,-0.06 kcal/mol
14,GGTGCCACGTGCGTTT,-0.13 kcal/mol
15,TTCAACACGTGTTGGG,0.13 kcal/mol
16,AGGGGCACGTGAACTT,0.1 kcal/mol
17,ATCGGCACGTGGTCAT,-0.03 kcal/mol
18,AGGGACACGTGATTGG,0.12 kcal/mol
19,GTTTACACGTGGAGAG,0.11 kcal/mol
20,TATGACACGTGTCTGG,-0.05 kcal/mol
21,TTATGCACGTGGGACG,-0.17 kcal/mol

row,Sequence,relative binding free energy
1,TTAGTCACGTGTGCTG,0.08 kcal/mol
2,CTAGGCACGTGGGCAG,-0.35 kcal/mol
3,AATGTCACGTGGGCAG,-0.02 kcal/mol
4,AGGGGCACGTGGCGTA,-0.37 kcal/mol
5,TGTTTCACGTGTAGCA,0.14 kcal/mol
6,AGTCGCACGTGGTTGT,-0.16 kcal/mol
7,TAGGACACGTGTTGGG,0.07 kcal/mol
8,AGGAGCACGTGGCGTT,-0.14 kcal/mol
9,TTCAACACGTGGGGAA,0.05 kcal/mol
10,GGGTCCACGTGACGGT,0.15 kcal/mol
11,GGTCACACGTGGAGTT,0.06 kcal/mol
12,GGCGGCACGTGTAGCT,0.12 kcal/mol
13,ATTCGCACGTGCTGTT,-0.14 kcal/mol
14,GGTAGCACGTGTGCAT,-0.12 kcal/mol
15,TACTTCACGTGGTGGG,0.17 kcal/mol
16,CGTGTCACGTGATGCG,0.19 kcal/mol
17,GTTTACACGTGGTTTT,0.11 kcal/mol
18,TGGTCCACGTGAAAGG,0.33 kcal/mol
19,CGTTTCACGTGATGTG,0.25 kcal/mol
20,GGTCTCACGTGGGATG,0.1 kcal/mol
21,TGCGGCACGTGAGCGG,0.24 kcal/mol
